Laboratory results published in the supplement of paper PMC11417369.
± gives the standard deviation of the averaged measurements. Some of the results follow.

system: PfAP2-G AP2 domain (GST-tagged); assay: gcPBM binding intensity (ln(normalized median fluorescence intensity)); higher = stronger DNA binding
Summary of the method: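 Binding intensity values are the highest Masliner-normalised natural-log median intensity among replicate spots of either probe orientation. The binding step lasted 1 h in 1× PBS with 1% milk, 0.2 mg/ml BSA, 0.5% salmon testes DNA and 0.03% Triton X-100, using GST-tagged P. falciparum DNA-binding domains expressed in E. coli on an Agilent 4 × 180k array of primer-extended double-stranded 36-bp intergenic genomic probes plus negative controls. Alexa488 anti-GST antibody and a 488 nm scan detected bound protein.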

Row | Sequence | gcPBM binding intensity (ln)
1 | TTTATTTATTAATACACACACACACGCCCACAAAAT [CACACA_site6253] | 11.2 ± 0.8
2 | AGGGACATATATATCACACACAAAAATTAGTCCCTT [CACACA_site2778] | 10.2 ± 0.049
3 | TAAATATTTATAAACACACAAATATTTATATTTATA [CACACA_site6166] | 9.675 ± 0.092
4 | GATTTTAAAATAATTACACACTTGATTATGTCCAAA [CACACA_site3491] | 10.3 ± 0.28
5 | ATAAATATAAATATATGTACATATATATATATATAT [XGTACX_site7433] | 11.2 ± 0.61
6 | TAAAAATATAGGTATACACACATATAAATATAAATA [CACACA_site7785] | 9.995 ± 0.021
7 | CTTATACATAAATTTTGTACACACAAAAAAAAAAAA [XGTACX_site2665] | 11.2 ± 1.1
8 | AAAAAAATATATATTACACACATATATACATATATA [CACACA_site3125] | 9.865 ± 0.035
9 | ATATTTTGTATAATCACACACACTATTATTAAATAG [CACACA_site2612] | 10.125 ± 0.007
10 | TTACATTTTTTATGTTTTTTTATATTGCAAAAAAAT [CACACA_negctrl_site1050] | 10 ± 0.15
11 | ATATATATATATATATGTACTTATTAAGATTAAAAA [XGTACX_site61] | 11.2 ± 0.73
12 | TCAAATTATATGAGTGGTACACATGTAATATTTTTA [XGTACX_site6518] | 11.4 ± 0.93
13 | AAAAAACGACCTTACGCACACATTATTCTAGTCTAT [CACACA_site2349] | 10.48 ± 0.028
14 | TTAAATATAAAAAGTAGTACATTTATATTTACCATA [XGTACX_site2962] | 11.5 ± 0.95
15 | TGTGTTAATAGAAAAAGTACATATACATATATATAT [XGTACX_site4951] | 11.2 ± 0.79
16 | TGCACAGACGGACACACACACAACTAAAAAATAATG [CACACA_site5424] | 11.5 ± 0.95
17 | TATAATAATGCCTTTACATGCAATAATAAAGAAATA [TGCATGCA_site631] | 9.96 ± 0.47
18 | AATGAATTAATAGCTACACACGGTAACATAATAACT [CACACA_site851] | 10.015 ± 0.007
19 | TCTTTTGAACAAATTTGTACGTATATAAAAATATTT [XGTACX_site6547] | 11.4 ± 0.71
20 | AAAAAAAAAAAAAAAACACACATACACCCCCACCCA [CACACA_site9117] | 11.4 ± 0.73
21 | ATTAATAATATTCCTTGTACATGATTTTTCTAAATA [XGTACX_site7099] | 10.9 ± 0.4
22 | TATAAATATAAATACACACACACATCAATACAGATA [CACACA_site5850] | 10.2 ± 0.2

Row | Sequence | gcPBM binding intensity (ln)
23 | ACCTTTGATATATACACACACATAAAAAAAATATAT [CACACA_site6952] | 10.3 ± 0.33
24 | TTCTTTTTCCAATTTGCACACCACAAAATTATATAT [CACACA_site2909] | 10.5 ± 0.28
25 | ATATTTCATCTAGCTACACACATATAACAAATTACT [CACACA_site7843] | 10.06 ± 0.049
26 | TACATAAAAATATCACGTACATATAATCATATACTA [XGTACX_site3505] | 11.2 ± 0.69
27 | ATGTTGTCAAAAAAATGTACTTACATAATATTTTCC [XGTACX_site1732] | 11.1 ± 0.71
28 | AGAAGTCTGTAATGATGTACTGGAAAAATATAAATA [XGTACX_site8148] | 10.8 ± 0.64
29 | TAGATCTTATTTACAAGTACATATATACGATTCATT [XGTACX_site7578] | 11.2 ± 0.81
30 | ATCTAATATATATTCTGTACGTAATTAAAACCACAA [XGTACX_site3152] | 11.5 ± 0.91
31 | CGCATACACCAACACACACACACATATATATATATA [CACACA_site635] | 10.4 ± 0.59
32 | TATAAATACTTATATGTACACACATATAGATATATA [CACACA_site8819] | 11.3 ± 0.88
33 | TTTTTTTTTTAAAAAACACACACCTAAACAAGATAT [CACACA_site875] | 10.5 ± 0.36
34 | TATAATTGTCTTCACACACACATATATATATATATA [CACACA_site2743] | 10.3 ± 0.42
35 | AAAATAAAAAAAAAAGGTACACAAAAAGATGGACTG [XGTACX_site2650] | 11.4 ± 0.81
36 | ATATATATATATATTTGTACATATATATAATTTTTC [XGTACX_site7460] | 10.9 ± 0.7
37 | ATTTGGCATGGACACACACACACACCGACAGACATA [CACACA_site4491] | 10.8 ± 0.44
38 | TTATATTATGGACACACACACAAAAAAAAAAAAAAA [CACACA_site7744] | 11.1 ± 0.9
39 | TTGTTTTTAGTTTATACACACCATATTAATATAATG [CACACA_site7452] | 10.3 ± 0.16
40 | AAATTAATTAAATATACACACATATATAAATATATA [CACACA_site391] | 9.9 ± 0.31
41 | ATATATATATAAAGTTGTACATTTTTTATTTTTTCA [XGTACX_site7847] | 11.2 ± 0.72
42 | TTAAAACCAAAACACAGTACATATATATATATATAT [XGTACX_site5668] | 10.7 ± 0.5
43 | AAAATATATTATATATGTACATATTACGTTTTAATT [XGTACX_site2518] | 11.1 ± 0.6
44 | CAATTTTAAGTAATCAATTTTTTTAAAAAACACAAA [CACACA_negctrl_site961] | 10.1 ± 0.21

Row | Sequence | gcPBM binding intensity (ln)
45 | TATATATATATGTATACACACATATGTATGTTATGT [CACACA_site4053] | 10.3 ± 0.16
46 | GCATAATATACTCTTACACACCATTTCTATATACAT [CACACA_site6799] | 10.3 ± 0.17
47 | TTTGTTAATTATAAATGTACATATTATATATATATA [XGTACX_site8870] | 11.1 ± 0.62
48 | CTTGTATTTAAACACACACACACTTTCTTTTTTTAA [CACACA_site5133] | 10.05 ± 0.071
49 | AAAAATAAAGGGCGAAAAAAAAAAAAAAAAAAAAAA [GTGCAC_negctrl_site671] | 9.88 ± 0.33
50 | TTAATATTAATATATTGTACATATATGCACATATTT [XGTACX_site6569] | 10.9 ± 0.67
51 | AATATTATAATATAAACACACAAAATTCAATTATAT [CACACA_site3789] | 9.995 ± 0.049
52 | AACGTTCATATTTCCACACACAAAAAATAAATATAA [CACACA_site3344] | 10.2 ± 0.34
53 | TTTTTTATGAACACGTCACACATCATTAAAATGTTT [CACACA_site5934] | 10.2 ± 0.2
54 | TTTAATATTTTTCAATGTAGAAAGTTTGTCTGTTAT [CACACA_negctrl_site973] | 9.93 ± 0.16
55 | AGTTATAAACATATGTGTACTTATAAAAACATATAG [XGTACX_site3268] | 11.6 ± 0.77
56 | TCACACATATATTCATGTACATATTAATATTTCCAT [XGTACX_site5387] | 11.1 ± 0.54
57 | TTGACACGTATATGCACACACCCGTAAGTGTCCATT [CACACA_site2764] | 10.5 ± 0.28
58 | ATATTTTATTATTGTTGTACTTTTTTTTGATTGTTT [XGTACX_site4090] | 11.4 ± 0.73
59 | TTTCCTATTTAATATAGTACATAAGAAATAATTTTA [XGTACX_site5952] | 10.9 ± 0.73
60 | TTGATGATATAAAAAAGTACTTATATTATATTATAT [XGTACX_site6492] | 11.3 ± 0.67
61 | TTTTGTAAAAAAAAAAAAAAAGGAAAATTAAAATAA [CACACA_negctrl_site803] | 9.685 ± 0.021
62 | ACATATTTTTAATACACACTCAAAAAAGTACTTAAC [CACACA_site3014] | 11.5 ± 0.88
63 | TATGAAATTTTAATTACACACAGGAAAATAAAATGG [CACACA_site4935] | 10.2 ± 0.16
64 | TAAAAAAAATATTTTTGTACGAATTAAATTTTTTTT [XGTACX_site4838] | 10.7 ± 0.32
65 | TACATATATATTATATGTACTTATATTTTTATAATA [XGTACX_site3452] | 11.4 ± 0.71
66 | ATATACATATCCATATTTATATCTATATTTAAAACA [CACACA_negctrl_site747] | 9.715 ± 0.007

Row | Sequence | gcPBM binding intensity (ln)
67 | AACCACATACATATAACACACATATACAATCTATAT [CACACA_site1987] | 10.1 ± 0.13
68 | AAATAACACTAATGATGTACTCAACTATTTATAATT [XGTACX_site8183] | 11.2 ± 0.79
69 | AAAAAAAGTAAATGTTGTACTATAATATGTAATATA [XGTACX_site7966] | 10.9 ± 0.46
70 | TATATGATATAATATACACACATACAGATATATATA [CACACA_site4440] | 9.84 ± 0.071
71 | AAATTATTAAGTGATATAATATTCTATAGATGGGGA [CACACA_negctrl_site168] | 9.84 ± 0.099
72 | TTTTCCAATTTAAAAGCATGCATCTGTTTTTTTTTT [TGCATGCA_site482] | 9.53 ± 0.19
73 | AGAGGTAGAGAGAAAACATGCATAATGATTTTCATA [TGCATGCA_site958] | 9.6 ± 0.23
74 | TAGAGGTATAAAATATGTACTTATAAAAACATGAAT [XGTACX_site8916] | 11.4 ± 0.73
75 | TAAATCAAAATAATTTAACACACAATTTTAATACTG [CACACA_site8744] | 9.715 ± 0.049
76 | GATAAGGTATTCAAATGTACAAAATGTTTTATATAA [XGTACX_site6863] | 10.7 ± 0.21
77 | TTTTTATAACTATATTATATAACTTTTGTACGAACT [CACACA_negctrl_site1423] | 10.7 ± 0.53
78 | ACATATAAATAAATAAATATATATATATATATATAT [GTGCAC_negctrl_site378] | 10.1 ± 0.76
79 | TATTTACACCTAATCACAAATAAAATAAAATCAAAT [CACACA_negctrl_site531] | 10.1 ± 0.18
80 | TATATATTTTGTGTCTGTACACATATTATTAATTCC [XGTACX_site7507] | 11.4 ± 1
81 | TTTTTTTATCAATGTTGTACTTTTTTTTTTTTCCAT [XGTACX_site8864] | 11.6 ± 0.83
82 | TTCAAATATAAATACACACACATAGCTACAAAATAA [CACACA_site4172] | 10.2 ± 0.2
83 | TATAAGAGAATATATACACACAAAAATATATACAGT [CACACA_site1668] | 10.1
84 | TACACGCATGGACACACACACACACCCATATATATA [CACACA_site4522] | 11 ± 0.6
85 | ATATATATTATATAAGTGCATAATATTCTTTCTTTT | 9.765 ± 0.078
86 | TTTTTCATTTCTGCATTTATTTATAAATAAATATTT [CACACA_negctrl_site368] | 10.06 ± 0.042
87 | TAAATACATAAATACACACACATATATTATATATAT [CACACA_site4310] | 9.98 ± 0.12
88 | ATATTAACTATCATAACACACACAGTAGACATATTT [CACACA_site6941] | 10.2 ± 0.26
